Laboratory results reported in PubChem BioAssay AID1240 (Sanford-Burnham Center for Chemical Genomics, 2008).
Out of some 50,000 compounds screened, about 800 (1.6%) showed an effect of 50% or more. Some of the results follow.

These compounds were tested against Bcl-2-like protein 10 (Homo sapiens) (UniProt Q9HD36) (assay: TR3 peptide-Bcl-B binding displacers, biochemical primary FP assay, phenotype converters (AID 1240;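 further: 0% = Bcl-B with tracer peptide and DMSO and 100% = tracer peptide lacking Bcl-B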)). Details: GST-Bcl-B / FITC-TR3 peptide fluorescence polarization; stronger effect = higher value; compound at 3.75 mg/L.
UniProt Q9HD36, sequence (Q9HD36 whole entry, looked up): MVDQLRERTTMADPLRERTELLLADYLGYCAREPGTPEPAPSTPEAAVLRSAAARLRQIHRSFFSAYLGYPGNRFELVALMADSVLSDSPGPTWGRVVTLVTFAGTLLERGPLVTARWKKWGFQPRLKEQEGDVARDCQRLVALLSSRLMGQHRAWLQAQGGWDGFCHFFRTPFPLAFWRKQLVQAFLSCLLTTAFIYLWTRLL

First: CC(CNC(=O)C(c1ccccc1)c1ccccc1)c1ccccc1 (centres undefined)
Second: O=C(CC(NC(=O)c1ccccc1)c1ccccc1)OCC(=O)N1c2ccccc2Sc2ccccc21 (centres undefined)
The displacement of the first is lower: -2.3% for the first, 2.3% for the second.

Going from `O=C(CN1C(=O)c2ccccc2S1(=O)=O)NC(Nc1ccc(I)cc1)C(Cl)(Cl)Cl` (centres undefined) to `O=C(NCc1ccccc1Cl)c1ccc(I)cc1`, the displacement falls from 11.2% to 9.3%.

Compared with `COCCN1C(=O)/C(=C2/C(=O)N(C)c3ccccc32)SC1=S`, `CC1CN(CN2C(=O)C(=O)c3ccccc32)CC(C)O1` (centres undefined) is higher in displacement: -59.9% for the first, -2.4% for the second.

Going from `CC(=O)N/N=C/c1cccc(C(F)(F)F)c1` to `O=C(Nc1cccc(C(F)(F)F)c1)/C(=C\c1cccs1)NC(=O)c1cccs1`, the displacement falls from 3.2% to -3%.

Compared with `COCCNC(=O)C(=O)Nc1ccccc1F`, `O=C(NCCC1=CCCCC1)C(=O)Nc1ccccc1F` is higher in displacement: -11.9% for the first, -11.5% for the second.

Compared with `COc1ccccc1-n1cnc2cc(NC(C)=O)ccc21`, `COc1cccc(CNc2ccc3c(c2)nc(C)n3C)c1OC` is lower in displacement: 14.7% for the first, 3% for the second.

First: CSc1ccccc1NC(=O)CSc1nc2ccccc2o1
Second: CCOC(=O)C(Nc1cc2oc3ccccc3c2cc1OC)c1ccccc1 (centres undefined)
The displacement of the first is higher: 18.9% for the first, -2.3% for the second.

First: CCOC(=O)c1c(NC(=O)COc2cc(C)ccc2C(C)C)sc(C(C)=O)c1C
Second: CCOC(=O)c1c(NC(C)=O)sc2c1CCN(CCc1ccccc1)C2
The displacement of the first is higher: 3.6% for the first, 2.4% for the second.

Compared with `Cc1ccc2c(Cl)c(C(=O)N3CCN(c4ccc(Cl)cc4)CC3)sc2c1`, `CCCC(=O)c1ccc(N2CCN(C(=O)c3cccc(F)c3)CC2)c(F)c1` is lower in displacement: -8.9% for the first, -9% for the second.

Going from `O=C(Nc1ccc2nn(-c3ccc(F)cc3)nc2c1)c1ccc(-c2ccc([N+](=O)[O-])cc2)o1` to `Cc1[nH]n(-c2ccc([N+](=O)[O-])cc2)c(=O)c1C=NCCN1CCN(C(=O)c2cccc(F)c2)CC1`, the displacement falls from 8.2% to -7.5%.

Compared with `CCCCOCCNC(=O)c1ccc(I)cc1`, `O=C(NCCCNc1ccc([N+](=O)[O-])cc1Cl)c1cccc(Br)c1` is higher in displacement: -2.8% for the first, 17.3% for the second.

First: COc1ccc(Cl)cc1NC(=O)C1=C(C)NC(=O)NC1c1ccccc1Cl (centres undefined)
Second: COc1cc(Cl)ccc1NC(=O)c1c(O)c2ccccc2n(CC(C)C)c1=O
The displacement of the first is lower: 8.5% for the first, 13.8% for the second.

Compared with `CCOc1ccc(/C=C/C(=O)c2ccc(F)cc2)cc1`, `O=C(Nc1ccc(O)cc1)c1cccc(F)c1` is higher in displacement: -0.4% for the first, 12.7% for the second.

Compared with `CCOc1ccc(/C=C2/SC(=O)N(CN3CCOCC3)C2=O)cc1`, `CCN1C(=O)/C(=C\c2ccc(Br)cc2)SC1=S` is higher in displacement: 2.5% for the first, 7.1% for the second.

Going from `COc1cc(NC(=O)c2cc(Cl)ccc2OC)ccc1NC(=O)c1ccco1` to `CCOC(=O)c1c(-c2ccc(Cl)cc2)csc1NC(=O)c1ccco1`, the displacement rises from -5.2% to 10.8%.

Compared with `O=C(NCCN1CCOCC1)/C(=C/c1ccc(F)cc1)NC(=O)c1ccccc1`, `O=C(NCCCN1CCOCC1)C(=O)NCc1ccco1` is higher in displacement: 6.7% for the first, 9% for the second.

Compared with `CCC(C(=O)Nc1cc(Cl)cc(Cl)c1)c1ccccc1` (centres undefined), `COc1cc(NC(=O)COc2ccccc2)cc(OC)c1` is higher in displacement: -0.6% for the first, -0.2% for the second.

First: CCC(CC)C(=O)Nc1ccc(S(=O)(=O)Nc2cnc3ccccc3n2)cc1
Second: CCOC(=O)c1ccccc1NS(=O)(=O)c1ccccc1
The displacement of the first is higher: -0.2% for the first, -9.2% for the second.

Compared with `CC(C)(C)c1ccccc1NC(=O)C1CC(=O)N(c2ccc(Cl)cc2)C1` (centres undefined), `CC(C)(C)c1ccc(C(=O)Nc2cccc(Cl)c2)cc1` is lower in displacement: -1.3% for the first, -12.3% for the second.

Going from `O=C(c1ccccc1Br)N1CCc2ccccc2C1` to `Cc1ccc(S(=O)(=O)N2CCCc3ccccc32)cc1C`, the displacement rises from -10.3% to 17.1%.

Going from `Cc1nc(C)c(-c2csc(Nc3ccc(O)cc3)n2)s1` to `Cc1cc(C)c(C(N)=O)c(Nc2ccccc2)n1`, the displacement falls from 10% to 0.3%.

Compared with `C/C(=N/NC(=O)CN(c1cccc(Cl)c1)S(=O)(=O)c1ccccc1)c1ccccc1O`, `O=C(Cc1ccc(-c2ccccc2)cc1)NNC(=O)c1ccccc1Cl` is lower in displacement: -4.7% for the first, -11.5% for the second.

Compared with `Cc1ccc(CNC(=O)C(=O)N2CCCC2)cc1`, `CS(=O)(=O)N(CC(=O)N1CCCC1)c1cccc(Cl)c1` is lower in displacement: -2.6% for the first, -2.9% for the second.

Compared with `Oc1ccc(C=Nc2cc(Cl)ccc2O)cc1`, `C=CCN1C(=O)c2ccccc2C1(O)c1ccc(Cl)cc1` (centres undefined) is lower in displacement: 10% for the first, -8.4% for the second.

First: O=C(Nc1nnc(COc2ccc(C3CCCCC3)cc2)s1)c1ccccc1
Second: CC(C)(C)c1ccc(OCC(=O)Nc2ccccc2[N+](=O)[O-])cc1
The displacement of the first is higher: 37.9% for the first, 13.2% for the second.

Compared with `CC1=NN(c2ccc(S(N)(=O)=O)cc2)C(=O)/C1=C\c1ccc(-c2ccc(C)c(Cl)c2)o1`, `CC(=O)NC1=NC(=O)/C(=C\c2ccc(-c3cc([N+](=O)[O-])ccc3C)o2)S1` is lower in displacement: 4% for the first, -11.2% for the second.

Compared with `Cc1c(Cl)cccc1NC(=O)C(=O)NCCC(C)C`, `COc1cccc(/C=N/NC(=O)C(=O)NCc2ccccn2)c1O` is lower in displacement: 7.4% for the first, -2.3% for the second.

Compared with `Cc1cc(=O)oc2ccc(OCc3ccccc3)cc12`, `CC1=C(C(=O)OCCc2ccccc2)C(c2ccccc2OCc2ccccc2)CC(=O)N1` (centres undefined) is lower in displacement: 3.1% for the first, -10.4% for the second.

Compared with `COc1ccc([N+](=O)[O-])cc1NC(=O)Cc1ccc(Br)cc1`, `COc1ccc(CNC(=O)COc2ccc(Cl)cc2C)cc1` is lower in displacement: 1.9% for the first, -0.6% for the second.

First: CC1C(c2ccccc2)=[N+]([O-])C(C)(c2ccc(Cl)cc2)N1O (centres undefined)
Second: Cc1ccc(N2C(=O)C3CC=C(c4ccccc4)CC3C2=O)cc1 (centres undefined)
The displacement of the first is higher: 8.5% for the first, -0.7% for the second.

Going from `CN(C)c1ccc(C(=S)N2CCOCC2)cc1Br` to `O=C(Oc1ccc(Br)cc1C(=S)N1CCOCC1)c1ccc(Cl)cc1`, the displacement rises from 7.3% to 11.2%.

Compared with `COc1c([N+](=O)[O-])cc2c(C)c(Br)c(=O)oc2c1OC`, `CCOc1ccc2c(C)c(CC)c(=O)oc2c1` is lower in displacement: 15.4% for the first, 11.8% for the second.

Going from `Brc1ccccc1CN1CCN(Cc2ccncc2)CC1` to `C(=N\N1CCN(c2ccccc2)CC1)/c1ccc(OCc2ccccc2)cc1`, the displacement rises from -2.2% to -1.7%.

First: O=C(NCc1ccco1)c1nn2c(c1Br)NC(c1cccs1)CC2C(F)(F)F (centres undefined)
Second: O=C(CSc1nc2ccc([N+](=O)[O-])cc2s1)NCc1ccco1
The displacement of the first is higher: 2.4% for the first, -4.6% for the second.

First: O=C(NNc1c(F)c(F)c(F)c(F)c1F)C(O)(c1ccccc1)c1ccccc1
Second: Cc1ccccc1NC(=O)c1cc2ccccc2c(/C=N/n2cnnc2)c1O
The displacement of the first is lower: -14.6% for the first, 109% for the second.

Going from `CCc1ccc(NC(=O)c2cc3cc(Br)ccc3oc2=O)cc1` to `CN(C)c1cccc(C(=O)Nc2cccc(Br)c2)c1`, the displacement rises from -0.3% to 12.6%.

Compared with `COc1ccc(OCC(=O)N2CCC(C(N)=O)CC2)cc1`, `COC(=O)c1cc(C(=O)N2CCCC(C)C2)cc([N+](=O)[O-])c1` (centres undefined) is lower in displacement: 0% for the first, -8.5% for the second.

Going from `COc1cc(/C=C2\SC(=O)N(c3ccccc3)C2=O)ccc1O` to `Cc1ccc(/C=C2\SC(=Nc3cccc(Cl)c3C)NC2=O)cc1[N+](=O)[O-]`, the displacement falls from 10.5% to -44.9%.

Compared with `CCOc1c(C=C2C(=O)NC(=S)NC2=O)cccc1OC`, `CCOc1cc(/C=N/NC(=O)COc2ccccc2C)cc(I)c1O` is lower in displacement: 14.9% for the first, 8% for the second.

Compared with `O=[N+]([O-])c1cc(C(O)(C(F)(F)F)C(F)(F)F)cc([N+](=O)[O-])c1Cl`, `CCn1c(O)c(N=NC(=O)c2cccc([N+](=O)[O-])c2)c2ccccc21` is lower in displacement: 10.5% for the first, -7.4% for the second.

Going from `Cc1ccc(N2C(=O)CC(NCCc3cccc(F)c3)C2=O)cc1` (centres undefined) to `Cc1ccc(S(=O)(=O)N2CCN(c3ccc([N+](=O)[O-])c(NCc4ccccc4)c3)CC2)cc1`, the displacement rises from 0.3% to 11.7%.

First: CC(=O)C1=C(O)C(=O)N(CCN2CCNCC2)C1c1ccc(Cl)cc1 (centres undefined)
Second: CCOC(=O)C1=C(C)N=C2SCC(=O)N2C1c1ccc(O)cc1 (centres undefined)
The displacement of the first is lower: -5.1% for the first, 4.6% for the second.

First: O=C1N=C(N2CCOCC2)S/C1=C\c1ccoc1
Second: Cc1ccc(S(=O)(=O)Oc2ccccc2C(=S)N2CCOCC2)cc1
The displacement of the first is higher: 12.2% for the first, 6.8% for the second.

Going from `O=C1C2C3C=CC(C3)C2C(=O)N1c1cccc(-c2nc3ccccc3c(=O)o2)c1` (centres undefined) to `Cc1ccc(-c2nc3ccccc3o2)cc1NC(=O)c1ccc2c(c1)OCCO2`, the displacement rises from 12.6% to 45.1%.

First: CCOC(=O)C1=CN(c2ccc(C)cc2)C=C(C(=O)OCC)C1c1cc(OC)c(OC)c(OC)c1
Second: CCOC(=O)C1=C(C)N=c2s/c(=C\c3cc(OC)c(OC)cc3[N+](=O)[O-])c(=O)n2C1c1ccc(SC)cc1 (centres undefined)
The displacement of the first is higher: -0.6% for the first, -10.2% for the second.

Going from `COC(=O)c1ccc(/C=N/NC(=O)c2n[nH]c3c2CCC3)cc1` to `COc1c(OC(C)=O)ccc(/C=N/NC(=O)COc2ccc(Cl)cc2Br)c1[N+](=O)[O-]`, the displacement rises from -8% to 1.1%.

Going from `Cc1ccc(-n2c(=O)c3c4c(sc3n3c(SCC(N)=O)nnc23)CCCC4)cc1` to `COc1ccc(C(=O)CN2C3=NCCN3c3ccccc32)cc1OC`, the displacement falls from 38.5% to -7.6%.

First: CCCNC(=O)OCC12COC(c3ccc4c(c3)OCO4)C(C(C)=CC1C)C2C (centres undefined)
Second: CC1=C(C(=O)OCCOc2ccccc2)C(c2ccc(Cl)c([N+](=O)[O-])c2)C2=C(CC(C)(C)CC2=O)N1 (centres undefined)
The displacement of the first is higher: 0.4% for the first, -2.6% for the second.

First: Ic1ccc(-c2nc(-c3ccncc3)no2)cc1
Second: Cc1cc(C)cc(NC(=O)c2ccncc2)c1
The displacement of the first is higher: 1.6% for the first, 0.4% for the second.

First: CCN(CC)c1ccc(/C=C2/SC(NC(C)=O)=NC2=O)cc1
Second: CCOc1ccc(-c2cc(C)n3nc(C(=O)Nc4ccccc4C(=O)OC)cc3n2)cc1
The displacement of the first is higher: 61.1% for the first, -1.8% for the second.

Compared with `CCCSc1nnc(-c2ccc(Cl)cc2Cl)o1`, `CSc1nnc(-c2cccc(NC(=S)NN)c2)o1` is lower in displacement: 11.4% for the first, 7.1% for the second.

Going from `O=C(O)/C=C\C(=O)Nc1cccc(-c2cn3ccccc3n2)c1` to `O=C(c1cccnc1)N(Cc1ccccc1)c1cccc([N+](=O)[O-])c1`, the displacement falls from 8.8% to -2.8%.

Compared with `COc1cc(C(=O)Nc2nc(C(C)(C)C)cs2)cc(OC)c1OC`, `CCCC(=O)C1=C(O)C(C(=O)OC)C(C)(C)CC1=NC(C)CC` (centres undefined) is lower in displacement: 4.5% for the first, 0% for the second.

Going from `Cc1ccc(O)c2nc(/C=C/c3ccccc3N)ccc12` to `CC(C)Oc1ccccc1C1Nc2ccccc2NC2=C1C(=O)CC(c1ccccc1)C2` (centres undefined), the displacement rises from 2.3% to 7.3%.

`CCOC(=O)C1=C(C)C2C3C(=O)N(c4cc(C)ccc4C)C(=O)C3C1(C)C1C(=O)N(c3cc(C)ccc3C)C(=O)C21` (centres undefined) showed a displacement of -6.3%.
